Results as given in the supplement of paper PMC8728848.
Some of the results follow.

How the values were obtained:
Test in all cases: glycan array binding signal (z-score within array); higher = stronger binding
Settings in all cases: glycan notation: IUPAC condensed, linker removed
[1] = target: Gal(b1-4)GlcNAc(b1-3)Gal(b1-4)GlcNAc(b1-6)[Gal(b1-3)]GalNAc
Procedure, shortened: (§1)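 Glycan array binding is given as a within-array Z-score, which can be read as non-binding when negative. The arrays, 3228 of them, came from the Consortium for Functional Glycomics database and were retained only where the protein sequence was available. Z-scores were averaged across arrays of the same protein sequence at different concentrations or buffers and across linkers.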

[2] = target: Gal(b1-4)GlcNAc(b1-3)Gal(b1-4)[Fuc(a1-3)]GlcNAc(b1-3)Gal(b1-4)[Fuc(a1-3)]GlcNAc
Procedure, shortened: as §1

[3] = target: Gal(b1-4)GlcNAc(b1-3)GalNAc
Procedure, shortened: as §1

[4] = target: Gal(b1-4)GlcNAc(b1-3)[Fuc(a1-3)GlcNAc(b1-6)]Gal(b1-4)Glc
Procedure, shortened: as §1

[5] = target: Gal(b1-4)GlcNAc(b1-3)[Gal(b1-4)GlcNAc(b1-6)]Gal(b1-4)GlcNAc
Procedure, shortened: as §1

[6] = target: Gal(b1-4)GlcNAc(b1-3)[GlcNAc(b1-6)]Gal(b1-4)GlcNAc
Procedure, shortened: as §1

[7] = target: Gal(b1-4)GlcNAc(b1-6)Gal(b1-4)GlcNAc
Procedure, shortened: as §1

[8] = target: Gal(b1-4)GlcNAc(b1-6)GalNAc
Procedure, shortened: as §1

[9] = target: Gal(b1-4)GlcNAc(b1-6)[Gal(b1-3)]GalNAc
Procedure, shortened: as §1

[10] = target: Gal(b1-4)GlcNAc(b1-6)[Gal(b1-4)GlcNAc(b1-3)]GalNAc
Procedure, shortened: as §1

Gal(b1-4)GlcNAc6P = target: Gal(b1-4)GlcNAc6P
Procedure, shortened: as §1

Gal(b1-6)Gal = target: Gal(b1-6)Gal
Procedure, shortened: as §1

Gal3S(b1-3)GalNAc = target: Gal3S(b1-3)GalNAc
Procedure, shortened: as §1

Gal3S(b1-3)GlcNAc = target: Gal3S(b1-3)GlcNAc
Procedure, shortened: as §1

[11] = target: Gal3S(b1-3)[Fuc(a1-4)]GlcNAc
Procedure, shortened: as §1

Gal3S(b1-4)Glc = target: Gal3S(b1-4)Glc
Procedure, shortened: as §1

Gal3S(b1-4)Glc6S = target: Gal3S(b1-4)Glc6S
Procedure, shortened: as §1

Gal3S(b1-4)GlcNAc = target: Gal3S(b1-4)GlcNAc
Procedure, shortened: as §1

[12] = target: Gal3S(b1-4)[Fuc(a1-3)]Glc6S
Procedure, shortened: as §1

[13] = target: Gal3S(b1-4)[Fuc(a1-3)]GlcNAc
Procedure, shortened: as §1

[14] = target: Gal3S(b1-4)[Fuc(a1-3)]GlcNAc6S
Procedure, shortened: as §1

Gal3S4S(b1-4)GlcNAc = target: Gal3S4S(b1-4)GlcNAc
Procedure, shortened: as §1

Gal3S6S(b1-4)GlcNAc = target: Gal3S6S(b1-4)GlcNAc
Procedure, shortened: as §1

Gal3S6S(b1-4)GlcNAc6S = target: Gal3S6S(b1-4)GlcNAc6S
Procedure, shortened: as §1

Gal4S(b1-4)GlcNAc = target: Gal4S(b1-4)GlcNAc
Procedure, shortened: as §1

Gal4S6S(b1-4)GlcNAc = target: Gal4S6S(b1-4)GlcNAc
Procedure, shortened: as §1

Gal6P(b1-4)GlcNAc = target: Gal6P(b1-4)GlcNAc
Procedure, shortened: as §1

Gal6S(b1-3)GlcNAc = target: Gal6S(b1-3)GlcNAc
Procedure, shortened: as §1

Gal6S(b1-3)GlcNAc6S = target: Gal6S(b1-3)GlcNAc6S
Procedure, shortened: as §1

Gal6S(b1-4)Glc = target: Gal6S(b1-4)Glc
Procedure, shortened: as §1

Gal6S(b1-4)Glc6S = target: Gal6S(b1-4)Glc6S
Procedure, shortened: as §1

Gal6S(b1-4)GlcNAc = target: Gal6S(b1-4)GlcNAc
Procedure, shortened: as §1

Gal6S(b1-4)GlcNAc6S = target: Gal6S(b1-4)GlcNAc6S
Procedure, shortened: as §1

GalNAc(a1-3)Gal = target: GalNAc(a1-3)Gal
Procedure, shortened: as §1

GalNAc(a1-3)GalNAc = target: GalNAc(a1-3)GalNAc
Procedure, shortened: as §1

[15] = target: GalNAc(a1-3)GalNAc(b1-3)Gal(a1-4)Gal(b1-4)Glc
Procedure, shortened: as §1

[16] = target: GalNAc(a1-3)GalNAc(b1-3)Gal(a1-4)Gal(b1-4)GlcNAc
Procedure, shortened: as §1

B1: GS13846A-bth-444-19-444 (Bacteroides thetaiotaomicron) (protein)
chain: SCENEFDVSDKADSLISVTVNTLNNQAAYNVGETAQAELWIQRGGLKDASGKVQFVVDPLLLDSLNQEDKTNYELLPENCYEMTNTEFTVDKNELCGYITYHPEKILALSAYNETKYVLPLRLISNDLAINPARNTSFLAFTILEPIVHISNAGVYNINPDLTSTMDIQIGVPFTNKWDILCNLTEDLSLIDEYNQINKVNFTLLPENAYTAPESVTLQEGVSQITASYQLKNNLVPGNYILPIKIGSITASQGGVPNNSLVIDEESNVLFCIVKEGNKINKSGWEVIECSSEHAGNEATYMIDDNESTYWHCKFKNEAGSSVPPFHFIIDMKKEITIAQIDLLNRGDGAANNIKWVEFYASNNNSEWDKIGAGDFNDEGTRATFRYYVKSTKARYLKLIIPEGYGNNCPPAAIRELTVYGLEGNN
[1]
  glycan array binding signal (z-score): -0.308
[2]
  glycan array binding signal (z-score): -0.223
[3]
  glycan array binding signal (z-score): -0.27
[4]
  glycan array binding signal (z-score): -0.326
[5]
  glycan array binding signal (z-score): -0.212
[6]
  glycan array binding signal (z-score): -0.252
[7]
  glycan array binding signal (z-score): -0.306
[8]
  glycan array binding signal (z-score): 0.207
[9]
  glycan array binding signal (z-score): -0.328
[10]
  glycan array binding signal (z-score): 0.135
Gal(b1-4)GlcNAc6P
  glycan array binding signal (z-score): 0.014
Gal(b1-6)Gal
  glycan array binding signal (z-score): -0.188
Gal3S(b1-3)GalNAc
  glycan array binding signal (z-score): 0.108
Gal3S(b1-3)GlcNAc
  glycan array binding signal (z-score): 0.099
[11]
  glycan array binding signal (z-score): -0.373
Gal3S(b1-4)Glc
  glycan array binding signal (z-score): -0.044
Gal3S(b1-4)Glc6S
  glycan array binding signal (z-score): -0.27
Gal3S(b1-4)GlcNAc
  glycan array binding signal (z-score): -0.112
[12]
  glycan array binding signal (z-score): 0.416
[13]
  glycan array binding signal (z-score): -0.021
[14]
  glycan array binding signal (z-score): 0.272
Gal3S4S(b1-4)GlcNAc
  glycan array binding signal (z-score): 0.033
Gal3S6S(b1-4)GlcNAc
  glycan array binding signal (z-score): 6.47
Gal3S6S(b1-4)GlcNAc6S
  glycan array binding signal (z-score): 6.71
Gal4S(b1-4)GlcNAc
  glycan array binding signal (z-score): -0.402
Gal4S6S(b1-4)GlcNAc
  glycan array binding signal (z-score): -0.089
Gal6P(b1-4)GlcNAc
  glycan array binding signal (z-score): -0.323
Gal6S(b1-3)GlcNAc
  glycan array binding signal (z-score): 7.3
Gal6S(b1-3)GlcNAc6S
  glycan array binding signal (z-score): 6.28
Gal6S(b1-4)Glc
  glycan array binding signal (z-score): 3.68
Gal6S(b1-4)Glc6S
  glycan array binding signal (z-score): 12.7
Gal6S(b1-4)GlcNAc
  glycan array binding signal (z-score): 4.8
Gal6S(b1-4)GlcNAc6S
  glycan array binding signal (z-score): 8.87
GalNAc(a1-3)Gal
  glycan array binding signal (z-score): 1.59
GalNAc(a1-3)GalNAc
  glycan array binding signal (z-score): -0.17
[15]
  glycan array binding signal (z-score): -0.324
[16]
  glycan array binding signal (z-score): -0.175
